This note sets out measurements from PubChem BioAssay AID1745853 (National Center for Advancing Translational Sciences (NCATS), 2022).

Test in all cases: Primary Screen for Target Class Profiling of Small Molecule Inhibitors of Methyltransferases
The target of assay [1] is Glycine N-methyltransferase (Homo sapiens) (UniProt Q14749). The following applies: purified enzyme, MTase-Glo SAH luminescence; measured here: GNMT inhibition; at 40 µM; stronger effect = lower value. An outline of the steps:
(§1)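 Each enzyme was assayed with SAM and its substrate. SAH formation detected by MTase-Glo luminescence; single-point 40 uM screen[…].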

Assay [2] has as its target Guanidinoacetate N-methyltransferase (Homo sapiens) (UniProt Q14353). The note with it: purified enzyme, MTase-Glo SAH luminescence; measured here: GAMT inhibition; at 40 µM; stronger effect = lower value. An outline of the steps: as §1
Assay [3] concerns the target Histamine N-methyltransferase (Homo sapiens) (UniProt P50135). The following applies: purified enzyme, MTase-Glo SAH luminescence; measured here: HNMT inhibition; at 40 µM; stronger effect = lower value. The essentials: as §1
For assay [4], the target named is Nicotinamide N-methyltransferase (Homo sapiens) (UniProt P40261). The following applies: purified enzyme, MTase-Glo SAH luminescence; measured here: NNMT inhibition; at 40 µM; stronger effect = lower value. An outline of the steps:
as §1

For assay [5], the target named is Phenylethanolamine N-methyltransferase (Homo sapiens) (UniProt P11086). The note with it: purified enzyme, MTase-Glo SAH luminescence; measured here: PNMT inhibition; at 40 µM; stronger effect = lower value. An outline of the steps:
as §1

Values joined by “and” are separate entries in the source; they are usually repeats but may differ in a detail not shown here. Equal entries are not always repeated. The list shows a part of the results. These are further read-outs of the screen, such as a control signal, another cell line or another target. No call is given for them.
On the % scale 0 is the no-effect control and ±100 the full control effect.

Consider `CC1(C(=O)NC2CCCCCC2)Cn2c(ccc2-c2ccccc2)C(=O)N1Cc1ccc(F)cc1` (configuration not stated), for which the activity change, negative = inhibition in assay [1] is 3.88%; in assay [2], 3.34%; in assay [3], 0.137%; in assay [4] it was -4.86%; in assay [5], -0.852%.

Regarding `O=C(Cn1ncc2c1-c1ccccc1OC2)N1CCN(c2ccccc2)CC1`, the activity change, negative = inhibition in assay [2] is -2.26%; in assay [4], -9.01%; in assay [5], 0.901%.

In the case of `O=c1c2ccccc2n2c(-c3ccc(F)cc3)nnc2n1Cc1ccccc1`, the activity change, negative = inhibition in assay [1] is -3.28%; in assay [2], 3.65%; in assay [3], -4.65%; in assay [4], -0.735%; in assay [5] it was -4.9%.

`COc1ccc2c(Oc3ccc(NC(=O)c4c(C)n(CC(C)(C)O)n(-c5ccccc5)c4=O)nc3)ccnc2c1`: the activity change, negative = inhibition in assay [1] is -10.9%; in assay [2], -5.65%; in assay [3], -29.7%; in assay [4], -43.9%; in assay [5], -2.38%.

Consider `Cc1cc(C(C)Nc2ccccc2C(=O)O)c2nc(N3CCOCC3)cc(=O)n2c1` (configuration not stated), for which the activity change, negative = inhibition is -5.79% in assay [1]; -4.02% in assay [2]; 6.92% in assay [3]; -17.1% in assay [4]; 0.433% in assay [5].

`Cc1ccc(S(=O)(=O)c2nnn3c2nc(NCCCOC(C)C)c2ccccc23)cc1C`: the activity change, negative = inhibition in assay [1] was -3.26%; in assay [2] it was 4.57%; in assay [3] it was 4.95%; in assay [4], 3.46%; in assay [5], -1.6%.

On to `Cc1ccc2c(c1)C(=O)[C@]1(O)CCN(c3ccccc3)C1=N2`, for which the activity change, negative = inhibition in assay [1] was -2.71%; in assay [2], -0.376%; in assay [3], 6.98%; in assay [4], -11.8%; in assay [5], -6.77%.

In the case of `CC1CCCCC1NC(=O)C1(C)Cn2c(cc3sccc32)C(=O)N1Cc1ccccc1` (configuration not stated), the activity change, negative = inhibition in assay [1] is -5.91%; in assay [2], 4.19%; in assay [3] it was -2.56%; in assay [4] it was -6.59%; in assay [5], -5.04%.

For `Cc1ccc(C)c2c1NC(c1ccc(Br)cc1)C1CC=CC21` (configuration not stated), the activity change, negative = inhibition was -9.11% in assay [1]; 1.65% in assay [2]; -5.69% in assay [3]; -14.2% in assay [4]; -5.84% in assay [5].

With `O=c1[nH]c2ccc(S(=O)(=O)NCCc3ccc(Cl)cc3)cc2[nH]1`, the activity change, negative = inhibition in assay [1] is -1.43%; in assay [2], 4.14%; in assay [3] it was -0.91%; in assay [4], -7.79%; in assay [5] it was -8.61%.

Regarding `COc1ccc(CCNC(=O)C(C)n2ccc3cc(S(=O)(=O)N4CCCC4)ccc32)cc1OC` (configuration not stated), the activity change, negative = inhibition in assay [1] turned out to be 4.48%; in assay [2], 1.84%; in assay [3], 0.742%; in assay [4], 4.33%; in assay [5], 1.77%.

Take `C[C@H](C(=O)NCCN1CCOCC1)C1CC[C@@]2(C)Cc3sc(CS(=O)(=O)C(C)(C)C)nc3[C@@H](C)[C@@H]2[C@H]1O` (some centres not stated): the activity change, negative = inhibition in assay [1] was -5.88%; in assay [2], -6.32%; in assay [3] it was -6.9%; in assay [4], -15.5%; in assay [5], -15.4%.

For `COc1ccc(Cl)c(Nc2nc3ccccc3nc2NS(=O)(=O)c2cccc(NC(=O)C(C)(C)N)c2)c1`, the activity change, negative = inhibition is -19.5% in assay [1]; -5.73% in assay [2]; -10.6% in assay [3]; -19% in assay [4]; -19.2% in assay [5].

On to `COc1cccc(N2CCN(C(=O)CCc3nnc4n(Cc5ccccc5)c(=O)c5ccccc5n34)CC2)c1`, for which the activity change, negative = inhibition is -10.5% in assay [1]; 4.19% in assay [2]; -1.84% in assay [3]; -8.63% in assay [4]; -9.66% in assay [5].

Regarding `COc1ccccc1CNC(=O)C1(C)Cn2nc(-c3ccccc3)cc2C(=O)N1Cc1ccccc1` (configuration not stated), the activity change, negative = inhibition in assay [1] was 0.861%; in assay [2] it was 2.41%; in assay [3], 5.25%; in assay [4], 4.08%; in assay [5], 0.65%.

As for `CCCNC(=O)NS(=O)(=O)c1ccc(Cl)cc1`, the activity change, negative = inhibition is -0.426% and -6.74% in assay [1]; -2.3% and 4.37% in assay [2]; 6.17% and -0.349% in assay [3]; -10.7% and -1.54% in assay [4]; 0.857% and 11% in assay [5].

`CCN(CC)C(C)CN1c2ccccc2Sc2ccccc21` (configuration not stated): the activity change, negative = inhibition was -13.1% in assay [1]; -0.021% in assay [2]; -2.33% in assay [3]; -12.3% in assay [4]; 0.969% in assay [5].

Take `O=C(O)Cc1cn([C@@H]2OC[C@@H](O[C@@H]3O[C@H](CO)[C@@H](O)[C@H](O)[C@H]3O)[C@H](O)[C@H]2O[C@@H]2O[C@H](CO)[C@@H](O)[C@H](O)[C@H]2O)c2ccccc12`: the activity change, negative = inhibition in assay [1] is 4.67%; in assay [2], 9.13%; in assay [3], 8.49%; in assay [4] it was -4.02%; in assay [5], 4.95%.

Turning to `CCc1ccc(NC(=O)Cn2nc3n(CC(C)C)c(=O)c4ccc(C(=O)NCC(C)C)cc4n3c2=O)cc1`, the activity change, negative = inhibition in assay [1] was 4.49%; in assay [2], 2.4%; in assay [3] it was 7.52%; in assay [4] it was 1.57%; in assay [5], 5.65%.

For `COc1ccc2cc3n(c2c1)CC(C)(C(=O)NC1CCCC1)N(Cc1ccc(F)cc1)C3=O` (configuration not stated), the activity change, negative = inhibition is -1.37% in assay [1]; 4% in assay [2]; 7.47% in assay [3]; 8.91% in assay [4]; 1.32% in assay [5].

On to `C/C=C(/C)C(=O)OC1C=C2C3C(C)C(C)C(OC(=O)C(C)C(C)O)CC3(C)CCC2(C)C2(C)CC(OC(C)=O)C3C(C)(C)C(O)C(=O)CC3(C)C12` (configuration not stated), for which the activity change, negative = inhibition in assay [1] was -8.39%; in assay [2] it was -5.78%; in assay [3], 2.67%; in assay [4], -22.2%; in assay [5] it was -12.1%.

With `COc1ccc(-c2nc(N3CCOCC3)c3sc(CN(C)c4ncc(C(=O)NO)cn4)cc3n2)cn1`, the activity change, negative = inhibition in assay [1] is -23.1%; in assay [3], -6.79%; in assay [4], 18%; in assay [5], 30.9%.

Regarding `Cc1cccc(Cn2nc3n(Cc4ccccc4)c(=O)c4ccc(C(=O)NC(C)C)cc4n3c2=O)c1`, the activity change, negative = inhibition in assay [1] was 4.48%; in assay [2], 0%; in assay [3], 7.1%; in assay [4] it was 0.318%; in assay [5] it was 5.7%.

For the molecule `COc1cc(-c2ncn(/C=C\C(=O)OC(C)C)n2)cc(C(F)(F)F)c1`, the activity change, negative = inhibition in assay [1] was -9.45%; in assay [2], -2%; in assay [3], 7.53%; in assay [4], -20.3%; in assay [5] it was 2.25%.

In the case of `CSc1cccc(N2C(=O)c3cc4ccccc4n3CC2(C)C(=O)NCCC(C)C)c1` (configuration not stated), the activity change, negative = inhibition in assay [1] is -0.825%; in assay [2], 4.21%; in assay [3], -1.81%; in assay [4], -1.34%; in assay [5], -4.5%.

Turning to `CC(C)CNC(=O)c1ccc2c(=O)n(CC(C)C)c3nn(Cc4ccc(Cl)cc4)c(=O)n3c2c1`, the activity change, negative = inhibition in assay [1] is 5.52%; in assay [2], 2.5%; in assay [3] it was 8.25%; in assay [4], 6.92%; in assay [5], 6.33%.

Consider `CCCCN1C(=O)c2cc(C(=O)Nc3ccc(CC)cc3)nn2CC1(C)C(=O)NC1CCCC1` (configuration not stated), for which the activity change, negative = inhibition in assay [1] is 5.37%; in assay [2], 3.19%; in assay [3], -15.4%; in assay [4] it was 6.18%; in assay [5], 5.24%.

As for `CCn1c(=O)n(CC)c2cc(S(=O)(=O)N3CCN(c4cc(Cl)ccc4C)CC3)ccc21`, the activity change, negative = inhibition in assay [1] stood at 1.4%; in assay [2], 0%; in assay [3] it was 3.37%; in assay [4], 5.74%; in assay [5], 1.86%.

For `Cc1nc(N2CCC(NC(=O)c3cccnc3)CC2)cc(C(F)(F)F)n1`, the activity change, negative = inhibition is -0.346% in assay [1]; -1.1% in assay [2]; 2.59% in assay [3]; -6.34% in assay [4]; 1.93% in assay [5].
